Consider one substance from publication PMC6111810.

Chains of the proteins cited; added tags and fusions are not shown. Lines headed by an entry give the natural chain unless they say otherwise; changes in a name come on top. A line that says so, or that is headed by a name, gives the form on record, which may keep a tag or linker.
HA‐NEDD4 (neural precursor cell expressed, developmentally down‐regulated gene 4), wild type (P46934-4, form named): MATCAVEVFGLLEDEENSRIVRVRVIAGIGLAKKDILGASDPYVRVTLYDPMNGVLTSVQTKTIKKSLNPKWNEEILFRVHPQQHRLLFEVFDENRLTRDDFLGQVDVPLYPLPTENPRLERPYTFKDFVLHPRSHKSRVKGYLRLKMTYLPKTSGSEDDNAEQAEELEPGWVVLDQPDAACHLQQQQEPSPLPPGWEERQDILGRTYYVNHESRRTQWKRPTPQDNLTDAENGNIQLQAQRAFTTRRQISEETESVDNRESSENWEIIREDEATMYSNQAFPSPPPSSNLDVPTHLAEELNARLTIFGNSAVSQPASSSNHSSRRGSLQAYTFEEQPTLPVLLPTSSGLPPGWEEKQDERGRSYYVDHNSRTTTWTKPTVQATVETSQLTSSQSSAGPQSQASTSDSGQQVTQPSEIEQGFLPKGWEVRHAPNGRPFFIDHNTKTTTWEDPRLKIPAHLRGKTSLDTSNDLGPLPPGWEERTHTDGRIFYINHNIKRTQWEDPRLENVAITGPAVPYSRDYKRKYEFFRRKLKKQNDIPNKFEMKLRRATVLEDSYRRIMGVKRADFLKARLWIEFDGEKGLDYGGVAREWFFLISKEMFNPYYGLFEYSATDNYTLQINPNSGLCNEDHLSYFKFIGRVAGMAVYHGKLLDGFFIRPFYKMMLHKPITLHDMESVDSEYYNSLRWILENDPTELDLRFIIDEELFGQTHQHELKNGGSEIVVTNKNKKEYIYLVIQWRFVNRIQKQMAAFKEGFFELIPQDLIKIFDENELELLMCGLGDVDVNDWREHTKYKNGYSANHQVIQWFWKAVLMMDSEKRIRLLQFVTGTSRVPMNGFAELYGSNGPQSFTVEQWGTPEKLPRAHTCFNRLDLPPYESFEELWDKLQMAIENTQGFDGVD

Results are given in words; binding and its absence hold for the method and conditions named. Binding seen in cells or lysates may run through a third protein. Some binding calls cover weakened binding; strength is not graded here. For part of these data: Tags and fused reporters may be left off the sequences shown.

The target of assay [1] is T1, GST‐fusion protein of the N‐terminal region (1‐65 aa) of PIP5Kα (mouse) (UniProt P70182).
T1 sequence: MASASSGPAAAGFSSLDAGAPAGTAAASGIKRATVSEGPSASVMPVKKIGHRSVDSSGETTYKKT
Nature of the assay: pull-down; GST‐fusion proteins of PIP5Kα on glutathione‐Sepharose 4B beads mixed with lysates (~1.0 mg) of HEK293 cells expressing HA‐NEDD4, 4 hours at 4°C; washed with PBS containing 0.1% Tween 20; HA immunoblot; only the target purified.

Assay [2] deals with GST‐PIP5Kα, full‐length, wild type (mouse) (UniProt P70182). Described as above.
Assay [3] has as its target T2, GST‐fusion protein of the C‐terminal region (435‐546 aa) of PIP5Kα (mouse) (UniProt P70182).
T2 sequence: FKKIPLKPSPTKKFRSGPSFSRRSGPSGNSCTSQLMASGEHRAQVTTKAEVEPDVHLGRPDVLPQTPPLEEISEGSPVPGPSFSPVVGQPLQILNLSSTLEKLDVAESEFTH
Described as above.

Assay [4] concerns the target GST‐PIP5Kα K88R, full‐length (mouse) (UniProt P70182). The assay is described as above.
Assay [5] concerns the target FLAG‐PIP5Kα ∆CT (C‐terminally deleted, 1‐434 aa) (mouse) (UniProt P70182). Description: co-IP; anti‐FLAG IP (anti‐FLAG M2 affinity gel) from lysates of cells cotransfected with FLAG‐PIP5Kα constructs and HA‐NEDD4; HA immunoblot.
A further assay deals with FLAG‐PIP5Kα K88R (mouse) (UniProt P70182). The description is as above.
The target of assay [6] is FLAG‐PIP5Kα AAGF mutant (LPGY to AAGF, 193‐196 aa) (mouse) (UniProt P70182). Described as above.
Assay [7] has as its target T3, FLAG‐tagged PIP5Kα C‐terminal region (435‐546 aa) (mouse) (UniProt P70182).
T3 sequence: T2 sequence
The description is as above.

In assay [8] the target is FLAG‐PIP5Kα (phosphatidylinositol 4‐phosphate 5‐kinase α), wild type (mouse) (UniProt P70182). Described as above.

As to “HA‐NEDD4 (neural precursor cell expressed, developmentally down‐regulated gene 4), wild type (from UniProt P46934-4 1-900) (enzyme)”, the binding entry in assay [1] is “no binding”; in [2] it was “binds”; in assay [3] it was “binds”; in assay [4], “binds”; in assay [5], “no binding”; with FLAG‐PIP5Kα K88R (mouse), “binds”. Further, the binding entry in assay [6], in assay [7] and in assay [8] was “binds” in each case.
